Values joined by “and” are separate entries in the source; they are usually repeats but may differ in a detail not shown here. Equal values may be shown once. Among all 270,000 compounds or so, about 5,800 (2.1%) were called active. This list was built around the results that the source calls inconclusive (neither active nor inactive); the mix of calls is not that of the screen. The call rests on the fitted dose curve; in most records, active means well fitted inhibition curve with a large enough effect; inconclusive means small, poorly fitted or top-dose-only effect; inactive means flat fitted curve, though single readings scatter. Potencies of inconclusive entries are doubtful fits and often do not repeat.
target: Microtubule-associated protein tau (Homo sapiens) (UniProt P10636); test: qHTS for Inhibitors of Tau Fibril Formation, Thioflavin T Binding; settings: recombinant tau K18 P301L, heparin-induced fibrillization, ThT fluorescence; series mostly up to 57.4 µM; further: nearly all actives have a fitted effect of over 55% in size
Chain of UniProt P10636 (P10636 whole entry, looked up): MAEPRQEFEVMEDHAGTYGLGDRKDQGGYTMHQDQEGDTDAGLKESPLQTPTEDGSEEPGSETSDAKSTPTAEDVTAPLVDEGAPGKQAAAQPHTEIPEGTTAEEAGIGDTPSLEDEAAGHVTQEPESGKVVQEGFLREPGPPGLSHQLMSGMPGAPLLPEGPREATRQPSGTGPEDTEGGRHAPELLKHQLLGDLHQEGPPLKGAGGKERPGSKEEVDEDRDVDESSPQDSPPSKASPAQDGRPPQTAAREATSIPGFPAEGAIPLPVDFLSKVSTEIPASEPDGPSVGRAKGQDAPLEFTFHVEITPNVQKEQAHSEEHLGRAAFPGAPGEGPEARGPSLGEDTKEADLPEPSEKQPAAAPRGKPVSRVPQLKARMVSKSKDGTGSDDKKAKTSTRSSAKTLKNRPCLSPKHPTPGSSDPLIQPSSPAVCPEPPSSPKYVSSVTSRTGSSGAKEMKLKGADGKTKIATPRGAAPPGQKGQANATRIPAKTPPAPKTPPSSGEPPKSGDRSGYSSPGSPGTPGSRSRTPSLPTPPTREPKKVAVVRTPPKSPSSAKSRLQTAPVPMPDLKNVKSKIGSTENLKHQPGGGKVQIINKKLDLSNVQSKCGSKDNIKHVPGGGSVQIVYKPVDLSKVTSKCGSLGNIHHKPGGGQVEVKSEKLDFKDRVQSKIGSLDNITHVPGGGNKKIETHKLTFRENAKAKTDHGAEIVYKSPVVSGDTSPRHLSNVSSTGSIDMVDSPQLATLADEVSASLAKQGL
Summary of the method: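 ThT emission at 510 nm, taken 1 hr after adding 30 uM dye, quantifies aggregates formed when 20 uM heparin acts on human tau K18 P301L for 6 hr at 37 C.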
Potency means the concentration at half of the fitted maximal effect; tags describe the fitted curve by direction and shape.

For `COc1ccc(NC(=O)c2ccco2)cc1NC(=O)COc1ccc(C)c(C)c1`, which Potency is on record?
The Potency was inconclusive: 1.78 µM [inhibitor, full curve, poor fit].

Which Potency does the source give for `COc1cccc(CNC(=O)CCC2CCCN(c3cc(C)nc(N4CCCC4)n3)C2)c1` (stereo unspecified) here?
Its Potency is “inactive”.

How did the Potency turn out when `Cc1ccc(N/N=C2\COC(C)(C)CC2=O)cc1` was run?
Its Potency is inconclusive: 14.1 µM [inhibitor, partial curve].

`c1ccc(Nc2cc(Nc3ccccc3)[nH]n2)cc1` was tested. Which Potency did it give?
Its Potency is inconclusive: 15.8 µM [inhibitor, partial curve].

For `COc1cccc(C(=O)NCC2OCCc3ccccc32)c1` (stereo unspecified), which Potency is on record?
The Potency was “inactive”.

How did the Potency turn out when `Cc1nn(C)c(C)c1S(=O)(=O)N(CC(=O)NCCc1ccccc1)c1ccc(C(C)C)cc1` was run?
Its Potency is “inactive”.

For `CO[C@]1(NC(=O)C(C(=O)O)c2ccc(O)cc2)C(=O)N2C(C(=O)O)=C(CSc3nnnn3C)COC21` (stereo partly specified), which Potency is on record?
Its Potency is “inactive”.

`COc1ccc2nc3c(c(-c4ccccc4)c2c1)CCC3` was tested. Which Potency did it give?
Its Potency is inconclusive: 20 µM [inhibitor, partial curve] and inconclusive: 31.6 µM [inhibitor, single point].

How did the Potency turn out when `CCCCN1CNC(=S)N(c2ccccc2OCC)C1` was run?
The Potency was “inactive”.

Which Potency does the source give for `Cc1cc(C(=O)Nc2sc3c(c2C#N)CCC3)no1` here?
The Potency was inconclusive: 17.8 µM [inhibitor, partial curve].

With `O=C(CCS(=O)(=O)c1ccc(Br)cc1)Nc1cc(F)ccc1F` as the molecule, how does the Potency read?
The Potency was “inactive”.

`COC(=O)C1=C(C)Nc2[nH]c(=S)[nH]c(=O)c2C1c1ccc(O)cc1` (stereo unspecified) was tested. Which Potency did it give?
The Potency was “inactive”.

How did the Potency turn out when `O=C(CCc1ccccc1)Nc1ncc([N+](=O)[O-])s1` was run?
The Potency was inconclusive: 15.8 µM [inhibitor, partial curve].

`CCOC(=O)C1=C(C)NC2=C(C(=O)CC(c3ccc(OC)c(OC)c3)C2)C1c1ccc(C)o1` (stereo unspecified) was tested. Which Potency did it give?
Its Potency is “inactive”.

For `COc1ccccc1NC(=S)NC(=O)/C=C/c1ccco1`, which Potency is on record?
The Potency was inconclusive: 20 µM [inhibitor, partial curve].

Which Potency does the source give for `Cc1cc(C)nc(SCC(=O)NC2=NC(=O)C(C)S2)n1` (stereo unspecified) here?
Its Potency is inconclusive: 28.2 µM [inhibitor, single point].

How did the Potency turn out when `CCCS(=O)(=O)c1c(S(=O)(=O)CCC)c2c(C)cccn2c1C(=O)OC` was run?
The Potency was “inactive”.

For `CC1(C)CC1C(=O)Nc1ccc([N+](=O)[O-])cc1Br` (stereo unspecified), which Potency is on record?
Its Potency is “inactive”.

Which Potency does the source give for `O=C(C[n+]1cc(-c2ccccc2)n2c1CCC2)Nc1nc(-c2ccccc2)cs1` here?
The Potency was inconclusive: 20 µM [inhibitor, partial curve].

`CCOc1cc(/C=C2\CCC/C(=C\c3cc(Cl)c(O)c(OCC)c3)C2=O)cc(Cl)c1O` was tested. Which Potency did it give?
The Potency was active: 8.91 µM.

How did the Potency turn out when `CN1C(=O)C(Cc2c[nH]c3ccccc23)NC1=S` (stereo unspecified) was run?
Its Potency is inconclusive: 3.98 µM [inhibitor, partial curve, poor fit].

— PubChem BioAssay AID1460 (National Center for Advancing Translational Sciences (NCATS), 2008)
